{"source": "patent US7671062B2", "about": "“Modulators of chemokine receptor activity, crystalline forms and process” (Bristol-Myers Squibb Company, priority 2006, dated 2010)", "tested_on": "Sodium Channel, Site 2", "note": "Read-outs that look alike come from different tables or passages of the source.", "data": [{"smiles": "CC(=O)N[C@@H]1C[C@H](N(C)C(C)C)CC[C@@H]1N1CC[C@H](Nc2ncnc3ccc(C(F)(F)F)cc23)C1=O", "note": "[Example 1, N-((1R,2S,5R)-5-(isopropyl(methyl)amino)-2-((S)-2-oxo-3-(6-(trifluoromethyl)quinazolin-4-ylamino)pyrrolidin-1-yl)cyclohexyl)acetamide]", "values": [{"measurement": "Na+ channel binding (% inhibition)", "setting": "at 10,000 nM", "result": "0%, 10,000 nM;"}, {"measurement": "Na+ channel binding (% inhibition)", "setting": "at 30,000 nM", "result": "21%, 30,000 nM"}]}]}
